Reference: patent US5036046A, “Method for enhancing healing of corneal endothelial wounds” (Eye Research Institute of Retina Foundation, Inc., priority 1988, dated 1991)

Tests used:
[1] = system: Corneal endothelial cells; assay: f-actin labelling with rhodamine labelled phallacidin in cultured corneal endothelial cells; conditions: 1 week in culture
Description: Widely separated cables of somewhat smaller diameter were also seen within the cytoplasm of these cells.

[2] = system: Corneal endothelial cells; assay: Transmission electron microscopy of pharmacologically modulated endothelial phenotypes; conditions: treated cultures

| Compound | f-actin staining pattern [1] | ultrastructure by transmission electron microscopy [2] |
| --- | --- | --- |
| CCCCC[C@H](O)/C=C/[C@H]1[C@H](O)CC(=O)[C@@H]1C/C=C\CCCC(=O)O [pgE2, prostaglandin E2] | circumferential actin bands and discrete cytoplasmic fibers were apparent | maintained the differentiated morphology of the polygonal cells |
| COc1ccc2c(c1)c(CC(=O)O)c(C)n2C(=O)c1ccc(Cl)cc1 [indomethacin] |  | extensive cytoplasmic overlap and close ajunctional apposition of the membranes of adjacent cells |
| epidermal growth factor [EGF] | actin fibers throughout the cytoplasm running roughly parallel to the long axis of the cell |  |
